According to the supplement of paper PMC4166925:
± gives the standard deviation of the averaged measurements. The full ranking holds about 33,000 sequences; the median of “E-score (dimensionless, -0.5 to 0.5)” is about -0.049, and the highest 2% start at about 0.37. Some of the results follow.

system: T1, PmTbr T-box DNA-binding domain (GST fusion); experiment: PBM E-score of 8-mer (E-score (dimensionless, -0.5 to 0.5)); Tbr is Tbrain of the sea star Patiria miniata (Pm) or the sea urchin Strongylocentrotus purpuratus (Sp); higher = stronger binding preference; most listed sequences are background and not binding sites; conditions: the construct has about 5 more residues each side
T1 sequence: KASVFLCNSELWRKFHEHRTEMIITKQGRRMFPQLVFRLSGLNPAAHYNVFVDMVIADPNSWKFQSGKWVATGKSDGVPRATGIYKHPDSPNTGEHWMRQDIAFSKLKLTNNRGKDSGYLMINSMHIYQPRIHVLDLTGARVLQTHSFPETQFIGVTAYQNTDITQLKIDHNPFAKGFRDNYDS
Description: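 Universal protein-binding microarray (Agilent AMADID 016060, 60-bp probes with a 35-bp variable region) incubated with 200 nM GST-fused Patiria miniata Tbr T-box DNA-binding domain (residues 272-466) in PBS pH 7.5. Scored for every ungapped 8-mer (given with its reverse complement) by the Universal PBM Analysis Suite as E-score (modified Wilcoxon-Mann-Whitney enrichment, range -0.5 to 0.5; >0.45 counts as bound) and Z-score of median probe intensity. Two replicate arrays (datasets 1 and 2).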
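Note: 200 nM protein in PBS on universal arrays averaged over duplicate arrays.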

| Sequence | PBM E-score of 8-mer |
| --- | --- |
| AGAAGGGA | -0.301 ± 0.082 |
| GGAGGTTA | -0.0747 ± 0.017 |
| AAACAACT | 0.0442 ± 0.078 |
| GCCGAGCA | 0.0159 ± 0.0034 |
| GTATATCA | 0.0135 ± 0.0068 |
| AAAGAGGA | -0.0356 ± 0.0083 |
| CGGTCAGC | -0.22 ± 0.1 |
| AAATTAGC | 0.24 ± 0.01 |
| CACCTCCC | 0.423 ± 0.0044 |
| TTCTGAAA | -0.273 ± 0.058 |
| CATTTGCC | -0.123 ± 0.021 |
| ATACTGTA | 0.00607 ± 0.042 |
| GACGTCTA | -0.0955 ± 0.025 |
| ACAACCGG | -0.122 ± 0.0046 |
| CGAGTACC | -0.0996 ± 0.0095 |
| AGGCGCAC | 0.0455 ± 0.023 |
| AATGATAC | -0.0724 ± 0.057 |
| CACTTCAA | 0.248 ± 0.012 |
| CACTGATC | -0.0239 ± 0.058 |
| CGCCCTTA | 0.0943 ± 0.022 |
| CCTGAAAC | -0.0626 ± 0.0012 |
| CTTTACCC | -0.183 ± 0.015 |
| CATATTCA | 0.0904 ± 0.063 |
| AGGGTGAA | 0.143 ± 0.012 |
| CGGCATGA | -0.0778 ± 0.05 |

| Sequence | PBM E-score of 8-mer |
| --- | --- |
| CTGCGTGC | 0.00062 ± 0.07 |
| CCCTGCTC | -0.215 ± 0.0043 |
| GGAGACCA | -0.146 ± 0.073 |
| CTCTAGGC | 0.0553 ± 0.035 |
| CCGGACGG | -0.207 ± 0.016 |
| ATACGTGG | -0.136 ± 0.072 |
| CGTAGAAG | -0.351 ± 0.059 |
| GGTTTGAC | 0.0502 ± 0.028 |
| TAAATCCA | -0.117 ± 0.13 |
| ATATCTGG | -0.218 ± 0.0023 |
| ACTACGAC | -0.128 ± 0.038 |
| CTTCATTC | -0.243 ± 0.1 |
| CTCCGCAG | -0.0327 ± 0.049 |
| GCATATAA | -0.136 ± 0.041 |
| CTCGCTCA | -0.069 ± 0.031 |
| CACATTGC | 0.257 ± 0.038 |
| CTGCCTTA | -0.0599 ± 0.015 |
| ATCGGATA | -0.0872 ± 0.069 |
| CGTGATCC | 0.0775 ± 0.019 |
| CACCCTAC | 0.183 ± 0.076 |
| CTGGCGCC | 0.258 ± 0.053 |
| CGGGGAGA | -0.109 ± 0.015 |
| CCCTAAAG | -0.169 ± 0.037 |
| CTGAGCTC | -0.201 ± 0.043 |
| AAGCAAGG | -0.0157 ± 0.0054 |

| Sequence | PBM E-score of 8-mer |
| --- | --- |
| TACCAGGA | -0.199 ± 0.05 |
| AACCTCAG | -0.26 ± 0.042 |
| TAAAGTCA | -0.194 ± 0.077 |
| ATGTAGCA | -0.0339 ± 0.056 |
| ACTATATG | -0.164 ± 0.081 |
| TTAGTGAA | -0.048 ± 0.037 |
| AGAATCGG | -0.0675 ± 0.025 |
| CAAGGCCC | -0.0733 ± 0.026 |
| CAAAAGAC | -0.165 ± 0.02 |
| GATGCCCA | -0.0504 ± 0.039 |
| GAGGATGC | -0.142 ± 0.061 |
| TATTGCAA | -0.0938 ± 0.15 |
| CGCAAAAG | 0.106 ± 0.096 |
| CGTACCTA | -0.0536 ± 0.039 |
| CGACTCAC | 0.154 ± 0.051 |
| CATATCCC | -0.0739 ± 0.056 |
| GGAAGCAC | -0.23 ± 0.015 |
| AGGGGAAT | 0.0115 ± 0.057 |
| CTAGAGAA | -0.3014 ± 0.0017 |
| CTTAGAGA | -0.0721 ± 0.056 |
| CCCCTTCC | -0.0801 ± 0.025 |
| ACTAAAGG | 0.0782 ± 0.01 |
| ATTCACAA | 0.247 ± 0.024 |
| GAATGGGC | -0.0404 ± 0.062 |
| CGCACGCG | 0.248 ± 0.036 |

| Sequence | PBM E-score of 8-mer |
| --- | --- |
| CAGAGCAC | -0.209 ± 0.13 |
| GATCTGGC | 0.0179 ± 0.036 |
| GGGGGCAC | -0.0925 ± 0.045 |
| ATCGGTGG | -0.0425 ± 0.03 |
| ATCCGATG | -0.0392 ± 0.042 |
| AGGGCCCA | -0.193 ± 0.015 |
| ACCCATCA | -0.0248 ± 0.064 |
| AACTGGCT | -0.182 ± 0.078 |
| AGAGCGGG | -0.151 ± 0.039 |
| CGAAGGCC | -0.105 ± 0.055 |
| AAAAGGCG | 0.197 ± 0.037 |
| GATAAGGC | 0.105 ± 0.069 |
| AATAAATC | -0.167 ± 0.018 |
| CCTAATCC | -0.128 ± 0.044 |
| GAGTTGAA | 0.0188 ± 0.085 |
| CATACGAA | -0.0882 ± 0.045 |
| CTTCCCGC | -0.0401 ± 0.07 |
| GTCCCCTA | -0.175 ± 0.076 |
| AGTGAACT | -0.118 ± 0.056 |
| CAATGTAA | 0.025 ± 0.093 |
| AATAGAGT | -0.0113 ± 0.0051 |
| CAAGTGAG | 0.254 ± 0.037 |
| TAAAACGA | -0.0147 ± 0.047 |
| ATGTACCC | 0.0216 ± 0.0037 |
| ACAACCAG | 0.0895 ± 0.034 |

| Sequence | PBM E-score of 8-mer |
| --- | --- |
| AGCAGGGA | 0.00886 ± 0.045 |
| AAAACCGA | -0.0105 ± 0.042 |
| TCATGACA | 0.242 ± 0.045 |
| CCTGAAGA | -0.202 ± 0.023 |
| GAACGACC | -0.0639 ± 0.034 |
| ATTAATCA | -0.144 ± 0.16 |
| TCCCGTCA | 0.105 ± 0.073 |
| AATCGAGG | 0.0132 ± 0.066 |
| AATGTCTG | -0.0348 ± 0.02 |
| CGCGATGA | 0.169 ± 0.0058 |
| CTCCACAG | -0.059 ± 0.095 |
| CAGCAGAA | -0.176 ± 0.013 |
| GCGTCGAA | 0.103 ± 0.051 |
| CCTGCGAA | 0.367 ± 0.025 |
| CCCATCCC | -0.164 ± 0.083 |
| CTAACTAG | 0.0684 ± 0.0073 |
| ATGGCAAA | -0.166 ± 0.041 |
| AACATGAG | -0.0864 ± 0.051 |
| CTACACGA | -0.194 ± 0.0027 |
| AAACATCC | -0.101 ± 0.042 |
| AGAAGAAC | -0.282 ± 0.01 |
| CGCATGAA | -0.167 ± 0.025 |
| AATGTATC | -0.0495 ± 0.0079 |
| AGGCACAT | -0.0671 ± 0.041 |
| CACACACA | 0.303 ± 0.0096 |

| Sequence | PBM E-score of 8-mer |
| --- | --- |
| ATGTAGCG | -0.0122 ± 0.0024 |
| AGGCAGTG | -0.295 ± 0.059 |
| ACCTCTCG | 0.194 ± 0.073 |
| ATAGAGGA | -0.147 ± 0.013 |
| ACCGGCCA | -0.0982 ± 0.0037 |
| GAGATCCC | -0.0869 ± 0.09 |
| AGGCCGCC | -0.223 ± 0.025 |
| GAGATAAA | -0.06 ± 0.035 |
| ACCTCAGA | 0.122 ± 0.0097 |
| AATGGATC | -0.166 ± 0.035 |
| TGTGGTAA | 0.16 ± 0.035 |
| AGTCACAT | 0.11 ± 0.058 |
| CGTTAAGA | 0.0228 ± 0.045 |
| CTCACAAC | 0.3462 ± 0.0029 |
| TAATCGGA | 0.0209 ± 0.11 |
| ATCCTCGA | 0.0553 ± 0.0014 |
| AACCGGAC | -0.118 ± 0.08 |
| CGCGAGAG | 0.258 ± 0.036 |
| ACGGAAAA | -0.112 ± 0.028 |
| ATGGTCAC | 0.0334 ± 0.1 |
| ATCCCAGA | -0.036 ± 0.029 |
| CCACAGAG | -0.192 ± 0.025 |
| TCTATGAA | -0.102 ± 0.0055 |
| CCAAAACA | 0.0379 ± 0.018 |
| GGCTGCAA | -0.0812 ± 0.091 |

| Sequence | PBM E-score of 8-mer |
| --- | --- |
| ACCTGCCA | 0.2808 ± 0.0012 |
| TGCTTCAA | -0.187 ± 0.019 |
| ACATTCCA | -0.101 ± 0.0052 |
| CAATTTCG | 0.107 ± 0.044 |
| ACTAATCA | 0.125 ± 0.017 |
| AATGGAAG | -0.042 ± 0.054 |
| CTGCCGAA | -0.0973 ± 0.023 |
| ACTGGCGA | 0.183 ± 0.042 |
| ACGACATC | -0.0462 ± 0.028 |
| CACTACCC | 0.114 ± 0.015 |
| ACACCGAG | 0.214 ± 0.045 |
| CCTGGAAG | -0.0146 ± 0.009 |
| CAGGATCG | 0.104 ± 0.086 |
| CCCGGAAA | -0.188 ± 0.0093 |
| ACTAGCGC | 0.191 ± 0.034 |
| AAAGAGAG | 0.0214 ± 0.073 |
| CATAAGGA | -0.154 ± 0.021 |
| AGTCATCC | -0.273 ± 0.052 |
| GCGCGTAC | 0.157 ± 0.046 |
| CAGCCCGG | -0.112 ± 0.0029 |
| CTCCGACA | 0.2833 ± 0.00057 |
| ACTCTTGG | -0.021 ± 0.043 |
